These results are taken from the supplement of paper PMC3334620.

Over roughly 33,000 sequences, “E-score (-0.5 to 0.5)” has its median near -0.01; the highest 2% begin near 0.26. This is one part of the list.

The target in the assay is Ste12 (UniProt P13574). The experiment in a line: PBM E-score (8-mer binding enrichment) (E-score (-0.5 to 0.5)); higher = stronger / more preferred TF binding; most listed sequences are background and not binding sites. As to conditions: protein concentration: 200 nM; construct: GST-DNA-binding domain. The method in brief: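 Yeast transcription factors carrying a GST tag, as full-length proteins or DNA-binding domains, were produced by PURExpress in vitro transcription/translation. About 100-200 nM protein was applied to universal all-10-mer Agilent arrays, double-stranded by primer extension on fresh or once-stripped slides. Bound protein was detected with fluorescent anti-GST, and scans were normalised with masliner. The Universal PBM Analysis Suite gave each ungapped eight-base word, pooled with its reverse complement, an E-score, a modified Wilcoxon-Mann-Whitney statistic.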
In the case of GATCCTAC, the “PBM E-score” value amounted to 0.0769.
Take CGCCACAA: the “PBM E-score” value came to 0.103.
Next, ACTCCCCT: -0.0514; CATAGTAA: 0.205.
For CCTTTGAA, the “PBM E-score” value is 0.0975.
Next, CGTGATTC: -0.108.
Next, ACGGGGGC: -0.192; TCGCCACA: -0.037; AAGGTACT: 0.0324.
Turning to ACTATCAC, the “PBM E-score” value was -0.0658.
Next, GGGGCCGA: -0.157; CTGTGGCA: -0.122; TAGATCCA: -0.127.
CATATATC: the “PBM E-score” value amounted to 0.0851.
In the case of AAGTACCC it was -0.115.
In the case of GAGGCGGA it was -0.189.
Next, CCAACAGC: -0.134; ATCTGGCG: -0.0613.
On to ACTCGTAA, for which the “PBM E-score” value was found to be 0.12.
Next, CCTGTTAG: 0.199; ATCGCGAT: 0.0912.
In the case of TGGTGACA it was 0.048; in that of CCAGACAG, -0.145; in that of ATCTCTGG, -0.236.
In the case of CGCTGGTC it was -0.284; in that of AGGTGTAA, 0.0911; in that of GCTAGCAC, -0.11.
In the case of TACCCATA, the “PBM E-score” value was -0.101.
Next, CACAGGAA: -0.0364.
In the case of ACAATCGG, the “PBM E-score” value was 0.0804.
Next, GCATTGAC: -0.095; GGGTGTGA: -0.0262; CCTCCGCA: -0.03.
In the case of CATCCATA, the “PBM E-score” value is 0.0995.
In the case of GAGCTTCC it was -0.112; in that of GGTGTTAC, -0.0374; in that of AACACGAC, -0.104.
Next, AATCTCAA: 0.155; CCACCTCA: -0.13.
In the case of ACTTAGCA it was -0.0684.
As for GCACTCGC, the “PBM E-score” value is -0.16.
Next, GCAGCGGA: -0.0871; AAGTGACA: 0.0639; CACCGCAA: 0.157.
Next, GCTCCTCC: -0.019; AGACAAAA: 0.0746; ATGCTGGA: 0.0606.
As to CAGAATTC, the “PBM E-score” value came out at 0.0783.
For the sequence AACCCACA, the “PBM E-score” value was -0.0351.
Next, CCCGATCA: -0.0546; CACAGTGG: -0.119; GGACCGAC: 0.0392.
On to AAGAAGAC, for which the “PBM E-score” value is -0.133.
Consider AACATGGA, for which the “PBM E-score” value is 0.184.
Next, GGGATAGA: -0.012; GATGTGCC: -0.228; GACCTGGC: -0.227.
In the case of CCGATAGC it was -0.104.
In the case of AGGAGTAT it was -0.0896.
In the case of AGTAACGG, the “PBM E-score” value worked out at 0.0216.
In the case of GGGATCAC it was -0.184.
Next, CGGCCCTC: -0.321; CGCAGACC: -0.118; ATCTTCTG: 0.0191.
As to CCCGACGC, the “PBM E-score” value is -0.0237.
Next, AGATAGCC: -0.234; GAGGCACC: -0.152.
Next, ACCTGTTG: 0.0246.
With CGGTTCTC, the “PBM E-score” value is -0.0663.
With CCGCTACG, the “PBM E-score” value turned out to be 0.0563.
Next, AAGACGCG: 0.0338; ACATCCGA: 0.0318.
In the case of TAATGACA it was 0.0872.
Next, ACACAATG: 0.154; CAAGGGGC: -0.0646.
As to CTGGGCAA, the “PBM E-score” value is -0.0128.
In the case of CAATTTAA it was 0.2; in that of ACTGGTAG, -0.0346.
In the case of CACTTATC it was 0.0779.
As to CCACGTCC, the “PBM E-score” value was -0.343.
Next, ACGACTTC: -0.109; GGCGTACA: -0.244; ATATTCAC: -0.0138.
In the case of CAGCCTCA it was -0.119.
In the case of ACTTTTTC, the “PBM E-score” value came to 0.187.
Next, AAAATAGC: 0.0345.
